Experimental data reported in publication PMC12136788.
Some of the results follow.

B1: chr7:137879121:137879144:-|3pUTR|ENSG00000182158|msi1_unk|total|mutant (ssRNA)
RNA: GGGAGUUCUACAGUCCGACGAUCUAAUCCCCAACCUACUUUCCGUUUUUUUGUUUUUUUUUUAUGGUUAAAAGUAACUUUUGCCGUUUAAAAAAAUCUUUCCUCUUUCAUAUAAAUAAGAAGUGGAAAUUGCCUUUUUAUUGUCAACAGAGGAUUGAGCAUCA
B2: chr15:38352922:38353023:+|3pUTR|ENSG00000166068|msi1|total|mutant (ssRNA)
RNA: GGGAGUUCUACAGUCCGACGAUCUACAUAUAAAUUUAUUUCUUUUGCAGAGCAUUAUAUUACUGGAUGUUUAAUUUACAAAACCGUUGGGUAAAUGUUCCAACAAACUUUAAAGUACCUUGAAGUCAAAUUGUCUGUUUUUGUCAACAGAGGAUUGAGCAUCA
B3: chr3:31579932:31580050:+|CDS|ENSG00000163527|unk|FALSE|unique (ssRNA)
RNA: GGGAGUUCUACAGUCCGACGAUCUACAUCUAUAUCUACUUUCCUGCUUACAAGAGAACUUUGGAACCAAGGAGCAGGACUUUUAGCUGCUUGUUUUAUUGCUAUUGUACCAGGCUACAUAUCUCGGUCAGUAGCUGGAUCCUUCAACAGAGGAUUGAGCAUCA
B4: chr19:38409054:38410039:-|three_prime_utr|ENSG00000171777|control|control|control (ssRNA)
RNA: GGGAGUUCUACAGUCCGACGAUCCUCCCUUCCCCCAGUCAGUCCUGAGUCCUGCCGUCAGACUCUGGCAGGGCUCCCAGAGGUAGGCCUCCAGAGGCAUCCGCCUUCCCAUCCACACUGCCUUUAGUGGUACGUCCGUCAUCUCAACAGAGGAUUGAGCAUCA
B5: ENSG00000102230:stop:overlap|stop_codon|ENSG00000102230|stop_codon|NA|stop_codon (ssRNA)
RNA: GGGAGUUCUACAGUCCGACGAUCUGCAGGCCUUAUCCCCGAAGCAGAGCCCUCUGAAGAGUUGGGCGAGGUGCAGAGACUUCUAGCUGGACAACCUACACAAACCUUAGCGUCUAGAGUCACUCUAACCUUGCUAAGGAAGGACAACAGAGGAUUGAGCAUCA
B6: chr21:18281039:18281221:-|CDS|ENSG00000154646|control|control|control (ssRNA)
RNA: GGGAGUUCUACAGUCCGACGAUCACCUCUCCUCAAACAGUCCCUCGAUUAAUAGAUGAAAUUGUCAUAAACCCUCAUUACAAUAGGCGAAGAAAGGACAACGACAUUGCCAUGAUGCAUCUGGAAUUUAAAGUGAAUUACACACAACAGAGGAUUGAGCAUCA
B7: chr12:64421256:64421371:+|CDS|ENSG00000184575|unk|total|mutant (ssRNA)
RNA: GGGAGUUCUACAGUCCGACGAUCGUUGACUUCCUGGCCAGAUUUUCUAAGUUGGUAAAUGGAAUGGGACAGUCAUUGACCGUCCGUUGGAGUAAAUUAAUUAAGAAUGGGGAUAUUAAGAAUGCUCAAGAGGCACUACAAGCUCAACAGAGGAUUGAGCAUCA
B8: chr15:64675409:64675510:+|CDS|ENSG00000180357|msi1|FALSE|bound_elsewhere (ssRNA)
RNA: GGGAGUUCUACAGUCCGACGAUCAACCAACAGCCCUGCAUACUCUGACAUCUCUGAUGCUGGGGAGGAUGGGGAGGGCAAGGUAGACAGUGUCAAAUCAAAGGACGCCGAACAGUUGGUUAAAGAAGGGGCUAAGAAAACUCUCAACAGAGGAUUGAGCAUCA
B9: chr11:107429260:107429366:-|CDS|ENSG00000152404|unk|total|mutant (ssRNA)
RNA: GGGAGUUCUACAGUCCGACGAUCGAGGAAACCCACAUAUUCAGAUAAAGCACAAAAUUGUCAAGAAAGCCGAGAAUCAGACUCCGUAAAAUAUGGUAACAGUUCAAGGGACCGAUAUGCUACAACAGAUACUGCAAAAAACCGCAACAGAGGAUUGAGCAUCA
B10: chr9:121988909:121989747:-|three_prime_utr|ENSG00000175764|control|control|control (ssRNA)
RNA: GGGAGUUCUACAGUCCGACGAUCACCUCUCCUUAUCGACAAGCUCAAGUUUGAUAUUCGUCUGUAUGUCUUACUCAAGUCCUUAGACCCCUUAGAGAUUUAUAUAGCCAAAGACGGACUCUCUAGGUUUUGUACCGAGCCAUACAACAGAGGAUUGAGCAUCA
B11: chr2:43888187:43888297:-|3pUTR|ENSG00000138095|unk|total|mutant (ssRNA)
RNA: GGGAGUUCUACAGUCCGACGAUCAAAAUGUUAUUCCUUUAUUUAAGAUUCACUUAUCCGUCUGCUGUUUCUCUGAAAAAUUUCCGAGCCCGGUACCGUGACCGUGAACUUUCUAACGCAUAAUAUUCUGUGAUACAGCCAUUCCAACAGAGGAUUGAGCAUCA
B12: chr11:69651733:69651797:+|3pUTR|ENSG00000110092|msi1_unk|FALSE|overlapping (ssRNA)
RNA: GGGAGUUCUACAGUCCGACGAUCAAAACAUUUUAAAAACAUAGAAAAAUUCAGCAAACCAUUUUUAAAGUAGAAGAGGGUUUUAGGUAGAAAAACAUAUUCUUGUGCUUUUCCUGAUAAAGCACAGCUGUAGUGGGGUUCUAGCAACAGAGGAUUGAGCAUCA
B13: ENSG00000124766:be:win_1801|3pUTR|ENSG00000124766|bound_else_gene|NA|bound_elsewhere_windowed (ssRNA)
RNA: GGGAGUUCUACAGUCCGACGAUCGAGCUUCCGGACUUGUCUGCACCCCCAGCAAGAAGGCGAGUUAGUUUUCUAGAGACUUGAAGGAGUCUCCCCCUUCCUGCAUCACCACCUUGGUUUUGUUUUAUUUUGCUUCUUGGUCAACAACAGAGGAUUGAGCAUCA
B14: chr1:113764432:113764533:-|3pUTR|ENSG00000081019|msi1|total|mutant (ssRNA)
RNA: GGGAGUUCUACAGUCCGACGAUCAAAAUAUUCUGAAACCGGUUAAAUCUUAUAUAAAUAUUACUUUGUGCAAUAUUGUUGUGCCGUUAAAUGCAUAUCCGCAAAGUACCGAGGUCACUGUGUAAACCGACCGAAAAGUAACCACAACAGAGGAUUGAGCAUCA

Biological target: MSI1 full-length (mouse, UniProt Q61474 1-362)
Assay: nsRBNS (natural sequence RNA bind-n-seq); RBNS binding buffer (assumed for nsRBNS): 25 mM Tris pH 7.5, 150 mM KCl, 3 mM MgCl2, 0.01% Triton X-100, 500 ug/ml BSA, 20 U/ml SUPERase-In, 4 C; UNK is unkempt and MSI1 is Musashi-1; names of the RNAs are library labels; protein concentration not given here; high values mean tight binding

Sequence of UniProt Q61474 (Q61474 whole entry): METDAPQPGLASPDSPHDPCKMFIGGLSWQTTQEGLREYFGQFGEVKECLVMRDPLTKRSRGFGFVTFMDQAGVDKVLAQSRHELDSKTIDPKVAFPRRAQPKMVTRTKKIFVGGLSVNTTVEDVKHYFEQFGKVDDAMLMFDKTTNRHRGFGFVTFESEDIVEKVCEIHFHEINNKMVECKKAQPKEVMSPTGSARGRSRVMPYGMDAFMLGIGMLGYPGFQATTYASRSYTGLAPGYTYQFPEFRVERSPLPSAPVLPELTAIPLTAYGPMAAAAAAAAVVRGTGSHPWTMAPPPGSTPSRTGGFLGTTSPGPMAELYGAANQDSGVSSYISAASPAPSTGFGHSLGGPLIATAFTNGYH

Row | Binder | binding signal [enrichment R]
1 | B1 | 0.624
2 | B2 | 2.34
3 | B3 | 0.418
4 | B4 | 0.899
5 | B5 | 0.431
6 | B6 | 1.24
7 | B7 | 0.57
8 | B8 | 0.442
9 | B9 | 0.703
10 | B10 | 1.3
11 | B11 | 0.353
12 | B12 | 13.6
13 | B13 | 0.837
14 | B14 | 0.583
